The structures appear in SMILES notation. The list shows a part of the results. Shown are side measurements of this screen, not its main read-out; they come without a call.

Common to all, as to test: Primary Screen for Target Class Profiling of Small Molecule Inhibitors of Methyltransferases
The target of test [1] is Glycine N-methyltransferase (Homo sapiens) (UniProt Q14749). The settings on record: purified enzyme, MTase-Glo SAH luminescence; measured here: GNMT inhibition; at 40 µM; stronger effect = lower value. In outline: (§1)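 Each enzyme was reacted with SAM and its substrate, with compounds tested once at 40 uM; SAH formed was read by MTase-Glo luminescence.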
The target of test [2] is Guanidinoacetate N-methyltransferase (Homo sapiens) (UniProt Q14353). The settings on record: purified enzyme, MTase-Glo SAH luminescence; measured here: GAMT inhibition; at 40 µM; stronger effect = lower value. In a few lines: as §1
In test [3] the target is Histamine N-methyltransferase (Homo sapiens) (UniProt P50135). The settings on record: purified enzyme, MTase-Glo SAH luminescence; measured here: HNMT inhibition; at 40 µM; stronger effect = lower value. In a few lines: as §1
The target of test [4] is Nicotinamide N-methyltransferase (Homo sapiens) (UniProt P40261). The settings on record: purified enzyme, MTase-Glo SAH luminescence; measured here: NNMT inhibition; at 40 µM; stronger effect = lower value. In outline:
as §1

Test [5] has as its target Phenylethanolamine N-methyltransferase (Homo sapiens) (UniProt P11086). The settings on record: purified enzyme, MTase-Glo SAH luminescence; measured here: PNMT inhibition; at 40 µM; stronger effect = lower value. In a few lines: as §1
% is set by controls: 0 for no effect and ±100 for the full control effect.

Regarding `COc1ccccc1CCN1C(=O)c2ccc(-c3ccco3)n2CC1(C)C(=O)NC1CCCCC1` (stereo not given), the activity change, negative = inhibition in test [1] is -5.16%; in test [2], 0%; in test [3], -1.58%; in test [4] it was -4.44%; in test [5] it was -2.98%.

On to `COCCCN1C(=O)c2cc3occc3n2CC1(C)C(=O)NC1CCCCCC1` (stereo not given), for which the activity change, negative = inhibition is 0.559% in test [1]; 3.23% in test [2]; -2.25% in test [3]; 4.63% in test [4]; -2.61% in test [5].

On to `CCc1cc2c(cc3n2CC(C)(C(=O)NC2CCCCC2)N(c2cccc(OC)c2)C3=O)s1` (stereo not given), for which the activity change, negative = inhibition in test [1] was -1.52%; in test [2] it was 3.63%; in test [3], -4.66%; in test [4], -5.22%; in test [5], -9.25%.

Take `COc1cncc(Nc2cnc3ccc(N(C)Cc4ccc(F)cc4)nn23)c1`: the activity change, negative = inhibition was -27.8% in test [1]; -17.6% in test [2]; -41.2% in test [3]; -36% in test [4]; -10.3% in test [5].

On to `CC1(C(=O)NC2CCCCC2)Cn2c(cc3sccc32)C(=O)N1C1CCCCCC1` (stereo not given), for which the activity change, negative = inhibition in test [1] came out at 4.17%; in test [2] it was 0.337%; in test [3], 5.2%; in test [4] it was 2.98%; in test [5], 1.46%.

Take `Cc1ccccc1CN1C(=O)c2cc3occc3n2CC1(C)C(=O)NC1CCC(C)CC1` (stereo not given): the activity change, negative = inhibition in test [1] was 3.75%; in test [2], -4.12%; in test [3] it was 6.94%; in test [4] it was 3.07%; in test [5] it was 4.27%.

Take `COc1cc2ncnc(N3CCC(Oc4cnc5ccccc5n4)C3)c2cc1OC` (stereo not given): the activity change, negative = inhibition in test [1] is -3.28%; in test [2], 11.7%; in test [3], -2.42%; in test [4], -14.2%; in test [5], -9.6%.

Take `COC(=O)C1=CO[C@@H](O[C@@H]2O[C@H](CO)[C@@H](O)[C@H](O)[C@H]2O)[C@@H]2[C@@](C)(O)[C@@H](O)C[C@]12O`: the activity change, negative = inhibition is 0.281% in test [1]; 3.48% in test [2]; -0.167% in test [3]; -5.58% in test [4]; 1.39% in test [5].

As for `Cc1ccc(CNC(=O)CSc2nnc3n(Cc4ccc(F)cc4)c(=O)c4ccccc4n23)cc1`, the activity change, negative = inhibition in test [1] came out at 5.05%; in test [2], 0%; in test [3] it was 8.54%; in test [4], 3.23%; in test [5], 5.19%.

With `CCOCCCN1C(=O)c2cc3sc(CC)cc3n2CC1(C)C(=O)NC1CCCCC1` (stereo not given), the activity change, negative = inhibition in test [1] was -0.488%; in test [2], 5.18%; in test [3], 3.95%; in test [4], 6.07%; in test [5], -2.64%.

Regarding `CCCCc1c(-c2ccc(OC)cc2)[nH]c2nccnc12`, the activity change, negative = inhibition in test [1] is 1.07%; in test [2] it was -5.85%; in test [3] it was -0.648%; in test [4], -20.2%; in test [5], -11.9%.

As to `Cc1ccc(CN2C(=O)c3ccccc3CC2(C)C(=O)NC2CCC(C)CC2)cc1` (stereo not given), the activity change, negative = inhibition in test [1] was 1.94%; in test [2], 0.958%; in test [3] it was 6.4%; in test [4], -5.21%; in test [5] it was -0.019%.

Regarding `Cc1ccc(Cn2c(=O)c3ccccc3n3c(=O)n(CC(=O)Nc4cccc(Cl)c4)nc23)cc1`, the activity change, negative = inhibition in test [1] came to 6.84%; in test [2] it was 0.505%; in test [3], 11.8%; in test [4], 9.33%; in test [5], 8.58%.

As to `CC1CCC(NC(=O)Cn2c(=O)oc3cc(S(=O)(=O)NC4CCCC4)ccc32)CC1` (stereo not given), the activity change, negative = inhibition in test [1] was -0.858%; in test [2] it was 4.75%; in test [3], 1.01%; in test [4], 7.79%; in test [5], -10.2%.

`CNC(=O)c1cc(C)nc2onc(C3CCCN(C(=O)Cc4ccc(OC)cc4)C3)c12` (stereo not given): the activity change, negative = inhibition in test [1] was -7.74%; in test [2], -3.94%; in test [3], 1.02%; in test [4], -12.7%; in test [5], -4.47%.

As to `COc1cc(OC)cc(N2C(=O)c3cc4ccccc4n3CC2(C)C(=O)NC2CCCC2)c1` (stereo not given), the activity change, negative = inhibition in test [1] is -7.15%; in test [2], 3.98%; in test [3], -7.62%; in test [4], -3.65%; in test [5], -1.35%.

On to `COc1cc2ncc(-c3ccccc3)nc2cc1OC`, for which the activity change, negative = inhibition is -21.9% in test [1]; 0.364% in test [2]; 4.06% in test [3]; -17.8% in test [4]; 1.28% in test [5].

Turning to `COc1ccc(N2CCN(C(=O)c3ccc4c(=O)nc5c(-c6cccc(C)c6)n[nH]n5c4c3)CC2)cc1`, the activity change, negative = inhibition in test [1] is -22.2%; in test [2] it was -2.15%; in test [3], -0.531%; in test [4] it was -9.79%; in test [5], -5.03%.

`Cc1ccccc1CNC(=O)C1(C)Cc2ccccc2C(=O)N1Cc1ccccc1` (stereo not given): the activity change, negative = inhibition in test [1] was 1.71%; in test [2], 0%; in test [3], 0.657%; in test [4], -5.14%; in test [5] it was -0.185%.

Regarding `CCOC(=O)c1cc2n(n1)CC(C)(C(=O)NC1CCCCCC1)N(c1ccc(OCC)cc1)C2=O` (stereo not given), the activity change, negative = inhibition stood at 1.63% in test [1]; 0% in test [2]; 0.833% in test [3]; 5.12% in test [4]; 1.38% in test [5].

`O=C(NCc1ccon1)C1CCCN(C2CCN(c3nc4ccccc4o3)CC2)C1` (stereo not given): the activity change, negative = inhibition in test [1] was -2.51%; in test [2] it was -1.12%; in test [3] it was -2.06%; in test [4], 0.478%; in test [5] it was -0.01%.

For `CCc1ccc(NC(=O)N2CCn3cccc3C2Cc2ccccc2)cc1` (stereo not given), the activity change, negative = inhibition in test [1] was -8.64%; in test [2], 2.89%; in test [3] it was -7.61%; in test [4], -6.91%; in test [5] it was -6.08%.

For `Cc1ccc(NC(=O)CCNc2c(C)nc3cnccn23)c(F)c1`, the activity change, negative = inhibition in test [1] was -3.87%; in test [2], -3.5%; in test [3] it was -1.04%; in test [4], -2.76%; in test [5], -4.1%.

`O=C(CCc1nnc2n(Cc3ccc(F)cc3)c(=O)c3ccccc3n12)NCc1ccccc1`: the activity change, negative = inhibition in test [1] is -5.75%; in test [2], 4%; in test [3], 2.69%; in test [4], 9.48%; in test [5], -3.05%.

Take `CC(C)NC(=O)Cn1nc2n(C)c(=O)c3ccc(C(=O)NC4CCCCC4)cc3n2c1=O`: the activity change, negative = inhibition was 5.21% in test [1]; 0% in test [2]; 6.12% in test [3]; 5.16% in test [4]; 8.51% in test [5].

With `CC(C)C(=O)N1CCC(CCOc2ccc(F)cc2)C1` (stereo not given), the activity change, negative = inhibition in test [1] was 0.918%; in test [2], 2.43%; in test [3], -0.012%; in test [4], -0.903%; in test [5], -1.91%.

As to `CC(=O)NCC(=O)N1Cc2ccccc2CC2(CCN(CC3CCCCC3)C2)C1` (stereo not given), the activity change, negative = inhibition in test [1] was -2.86%; in test [2], -6.25%; in test [3] it was -1.79%; in test [4], -12%; in test [5] it was -3.74%.

Regarding `CCN(CC)Cc1cc(C2CC(=O)Nc3n[nH]c(C(=O)O)c32)ccc1OC` (stereo not given), the activity change, negative = inhibition in test [1] is 0.27%; in test [2], -0.019%; in test [3], 1.46%; in test [4], -7.61%; in test [5], 5.48%.

Consider `C=CCCC(=O)N1CCOc2c(O)cc(-c3nc4ccccc4s3)cc2C1`, for which the activity change, negative = inhibition is -21.1% in test [1]; -1.7% in test [2]; -18.7% in test [3]; -23.5% in test [4]; -15.2% in test [5].

For `CC(CN1C(=O)c2ccc(-c3ccco3)n2CC1(C)C(=O)NC1CCCC1)c1ccccc1` (stereo not given), the activity change, negative = inhibition was -2% in test [1]; -0.013% in test [2]; 5.7% in test [3]; 3.28% in test [4]; -1.81% in test [5].

Source of the values: PubChem BioAssay AID1745853 (National Center for Advancing Translational Sciences (NCATS), 2022).
